# ± gives the standard deviation of the averaged measurements. This is one part of the list.
# Tested on: PfAP2-LT AP2 domain (GST-tagged)
# Test: gcPBM binding intensity (ln(normalized median fluorescence intensity)); higher = stronger DNA binding
# How it was run: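 In this array assay, P. falciparum DNA-binding domains with a GST tag, expressed in E. coli, were applied for 1 h to primer-extended double-stranded 36-bp intergenic genomic probes and negative controls on an Agilent 4 × 180k array. Bound protein was visualised with Alexa488 anti-GST antibody at 488 nm. Binding intensity is the highest Masliner-normalised natural-log median intensity across replicate spots of either probe orientation.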
row,Sequence,gcPBM binding intensity (ln)
1,AAATAATACAAGGGCTGTACATAAAAAGGAGTATAT [XGTACX_site839],9.12 ± 0.49
2,ATTTTAAAAAGGATAGTGCAAATGTTAAAATAGGAC,9.12 ± 0.46
3,GAAAATTTAAAAAGAGTGCATTATATGTTTGAATAT [GTGCAC_site9564],8.6 ± 0.46
4,CTTTTTTTCTTTCCAAGTACTAAATTCATACAAATT [XGTACX_site2605],8.46 ± 0.44
5,TTTAACGAATAAAAATGTACAAATTTATACATTTAT [XGTACX_site2805],8.47 ± 0.49
6,AATAAAATAATAAAAGCACACAAGAATACACCCAAA [CACACA_site7919],9.47 ± 0.35
7,CAAAAGGATGTGGGATGTACATATGAAAAAAAAAAA [XGTACX_site8059],8.9 ± 0.59
8,TTTTATTTATAATACTCACACATTTATATTACATAT [CACACA_site6000],8.98 ± 0.54
9,TTGTATGTAAAAAAGTGTACATGAGTGATTATATAA [XGTACX_site8166],8.76 ± 0.38
10,GGTCTTTTTTTCAAAAGTACATAAATAAAAAAGGTT [XGTACX_site2894],8.43 ± 0.49
11,ATTACTAAAAAATATAAACACACATATATTTTACAT [CACACA_site8633],8.9 ± 0.4
12,TAAATTTAAAAATCTGCACACATTTAAAAAAAAAAA [CACACA_site2515],8.71 ± 0.52
13,ATTATTTAAAAAAAATGTACATAATAAATATGAACG [XGTACX_site4010],8.62 ± 0.43
14,AATAAATGGAATGTCACACATATATATATATATATA [CACACA_site4869],9.97 ± 0.028
15,AGTGTATGTATATAAACACACATACATATTTATAAC [CACACA_site6777],9.29 ± 0.35
16,TAAATTAAAAAACACACACACAAAAAAAAAAAAAAA [CACACA_site2263],9.41 ± 0.51
17,AAAAAAAAGAAAGAAAGTACAAATTATAAAATGAAC [XGTACX_site860],8.97 ± 0.57
18,ATTTCTAAATGTTGGTGTACGTTTTTTTATAACCTT [XGTACX_site1752],8.93 ± 0.61
19,GGAAAACACAAAAACTGTACATTTATTCAACATATA [XGTACX_site5831],8.8 ± 0.57
20,TATATACATATATACACACACATATATATATATATA [CACACA_site2805],9.905 ± 0.0071
21,CAGGTGCACTATATTACACACGCTTCTTTTTTTTTA [CACACA_site2069],8.98 ± 0.37
22,TTGATATTATTGTATAAACATAATAGAGATAAAGAG [TGCATGCA_negctrl_site455],8.8 ± 0.52
23,TACAAAAAAATAAATAATAAAAAAAAATATATATAA [XGTACX_negctrl_site344],8.51 ± 0.42

row,Sequence,gcPBM binding intensity (ln)
1,TGAAGGATATATTCCGTGCACATATAAATATATACA,8.83 ± 0.4
2,AACATGTTAACTAAATGTACACACCTATGTTGATGT [XGTACX_site3777],9.23 ± 0.33
3,ATATAATGTTGTAATAGTACTTTTTTCATATAAATA [XGTACX_site2666],8.5 ± 0.38
4,TATTAACACAATAGCGCACACTTTTAATATTTTATA [CACACA_site1617],8.88 ± 0.37
5,AAAGAATACAAAATTGCACACATATTGTGAAAATGT [CACACA_site9327],9.38 ± 0.49
6,CTTAAATTGAAATGTTGTACAAAGTAAAAACAATGA [XGTACX_site2123],8.88 ± 0.44
7,CATATTTTATTATATACATGCAATTTTAATATATAT [TGCATGCA_site544],8.57 ± 0.4
8,TATAATTTAACGACATGTACATATAAAAAAATATTT [XGTACX_site2395],8.94 ± 0.38
9,AAAATGTATTCTCTCATGCACACTTTCTTTAAGGGA [CACACA_site2196],8.67 ± 0.35
10,ATACACATTCTTCCGACATAATAAGAAAAAGAAAAA [CACACA_negctrl_site9],8.71 ± 0.4
11,TGTAGATTTTGTAACACACACATATAAATACCTATA [CACACA_site7183],9.16 ± 0.37
12,TTATTTATATTTTTTTGTACACATATTGTATACATA [XGTACX_site1178],8.88 ± 0.5
13,AAACATATATACATATGTACATATATACATATATGT [XGTACX_site5779],8.94 ± 0.4
14,TATAAACCTTTTTGCACGCACACAAAAAAAAAATAA [CACACA_site168],8.99 ± 0.52
15,TTCGGAAAAATTAAAGCACACAAAAAAAAATAAAAA [CACACA_site8296],8.75 ± 0.49
16,GACTATAATGTTTTGGTGCGTCATGTTATGGTCATC,9.13 ± 0.45
17,GATTAACAACATATTAGTACATATATTATATATATA [XGTACX_site7646],8.66 ± 0.43
18,TATTTATATATATGATGTACATAAGGTGTAATGTTA [XGTACX_site5591],8.78 ± 0.42
19,TACATGAATATTTATACATGCACACTAAAATAAAGA [TGCATGCA_site611],8.88 ± 0.4
20,TATTTACATACAAAATGTACAAAAATATATTTTTTT [XGTACX_site888],8.6 ± 0.38
21,ATATATATTTAATGTTGTACATAAAAAATATATAAA [XGTACX_site7774],8.46 ± 0.48
22,ATCTCTTATATATTCACACACATATATATAATTATA [CACACA_site1502],9.16 ± 0.35
